Assay results from PubChem BioAssay AID588453 (National Center for Advancing Translational Sciences (NCATS), 2011).
Hit rate of the full screen: of about 390,000 compounds, about 4,000 (1%) were called active. The inconclusive results got no clear call from the source; some entries with a clear call stand among them for comparison. Calls come from the whole dose curve; as a rule, active = well fitted inhibition curve with a large enough effect; inconclusive = small, poorly fitted or top-dose-only effect; inactive = no such curve, though single readings can be large or run the other way. Potencies of inconclusive entries are doubtful fits and often do not repeat.

What follows are compounds tested against Thioredoxin reductase 1, cytoplasmic (Rattus norvegicus) (UniProt O89049) (assay: qHTS Assay for Inhibitors of Mammalian Selenoprotein Thioredoxin Reductase 1 (TrxR1): qHTS). Conditions: recombinant rTrxR1, NADPH fluorescence consumption, selenite substrate; series mostly up to 114 µM.
In short: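 Rat TrxR1 (90 nM in the dispensed reagent) was pre-reduced with 400 uM NADPH for 5 min at room temperature, then incubated with compound for 15 min. After 400 uM selenite was added, NADPH fluorescence (Ex 340/Em 450 nm) was followed for 8 min.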
Note: nearly all actives have a fitted effect of over 65% in size.
Potency is the fitted concentration of half-maximal effect; tags give direction and shape of the fitted curve.

Sequence of UniProt O89049 (O89049 whole entry, looked up): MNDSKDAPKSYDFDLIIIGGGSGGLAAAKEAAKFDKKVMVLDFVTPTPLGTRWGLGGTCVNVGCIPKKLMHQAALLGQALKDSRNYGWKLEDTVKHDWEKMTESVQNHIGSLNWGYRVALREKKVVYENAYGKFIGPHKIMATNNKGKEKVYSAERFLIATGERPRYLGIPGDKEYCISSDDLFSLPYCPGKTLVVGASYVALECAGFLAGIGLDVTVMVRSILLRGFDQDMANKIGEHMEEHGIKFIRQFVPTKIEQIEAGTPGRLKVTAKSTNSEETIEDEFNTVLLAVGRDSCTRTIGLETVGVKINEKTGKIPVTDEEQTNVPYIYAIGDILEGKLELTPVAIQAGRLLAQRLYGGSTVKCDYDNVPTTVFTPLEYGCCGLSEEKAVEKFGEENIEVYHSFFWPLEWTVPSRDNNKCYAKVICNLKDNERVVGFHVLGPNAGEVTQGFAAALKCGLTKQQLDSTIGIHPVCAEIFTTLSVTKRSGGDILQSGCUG

Q: With `O=C1NC(=S)NC(=O)C1=Cc1ccc(Br)s1` as the compound, how does the Potency read?
A: Its Potency is active: 4.47 µM.

Q: `CC1(C)CC(=O)C(C=NCCN2CCN(C(=O)Cc3ccccc3)CC2)=C(O)C1` was tested. Which Potency did it give?
A: The Potency was inconclusive: 22.4 µM [inhibitor, full curve].

Q: `Cc1cc(=O)oc2cc3c(cc12)CCCN3` was tested. Which Potency did it give?
A: Its Potency is inconclusive: 89.1 µM [inhibitor, single point].

Q: Which Potency does the source give for `COc1ccc(NC(=S)NC(NC(=O)CF)C(Cl)(Cl)Cl)cc1[N+](=O)[O-]` (stereo not drawn) here?
A: The Potency was inconclusive: 14.1 µM [inhibitor, partial curve].

Q: With `O=C(O)c1sccc1Oc1ccc(F)cc1[N+](=O)[O-]` as the compound, how does the Potency read?
A: The Potency was inconclusive: 44.7 µM [inhibitor, single point].

Q: Which Potency does the source give for `CN1C(=O)/C(=C/C=C/c2ccco2)C(=O)NC1=S` here?
A: The Potency was inconclusive: 20 µM [inhibitor, full curve].

Q: Which Potency does the source give for `O=C1NCN(c2ccccc2)C12CCNCC2` here?
A: Its Potency is inconclusive: 63.1 µM [inhibitor, single point].

Q: `O=C1NC(=O)C(=Cc2ccc(OCC(=O)N3CCOCC3)cc2)C(=O)N1` was tested. Which Potency did it give?
A: Its Potency is inconclusive: 50.1 µM [inhibitor, partial curve].

Q: For `O=C(O)[C@@H]1C[C@H]1[C@@H](NP(=O)(c1ccccc1)c1ccccc1)c1ccccc1`, which Potency is on record?
A: The Potency was inconclusive: 39.8 µM [inhibitor, partial curve, poor fit].

Q: With `COC(=O)C1=C(C(=O)OC)SC2(S1)C(C(=O)OC)=C(C(=O)OC)Sc1c2ssc1=O` as the compound, how does the Potency read?
A: Its Potency is inconclusive: 3.16 µM [inhibitor, partial curve, poor fit].

Q: Which Potency does the source give for `COc1ccc(N2C(=O)CS(=O)C(c3ccccc3)C2=O)cc1` (stereo not drawn) here?
A: Its Potency is active: 50.1 µM.

Q: With `O=C1NC(=O)N(c2ccc(F)cc2)C(=O)/C1=C/c1ccc(N2CCOCC2)cc1` as the compound, how does the Potency read?
A: The Potency was inconclusive: 20 µM [inhibitor, single point].

Q: For `Cc1ccccc1N1CCN(C2CCCN(C(=O)COc3ccccc3)C2)CC1` (stereo not drawn), which Potency is on record?
A: The Potency was inconclusive: 79.4 µM [inhibitor, single point].

Q: With `CN[C@H](C)[C@H](O)c1ccccc1` as the compound, how does the Potency read?
A: The Potency was “inactive”.

Q: How did the Potency turn out when `Cc1ccccc1C(=O)NNC(=S)NC(=O)COc1ccccc1` was run?
A: Its Potency is inconclusive: 50.1 µM [inhibitor, partial curve, poor fit].

Q: With `O=C1NC(=O)C(=Cc2ccc(SC3CCCCC3)o2)C(=O)N1` as the compound, how does the Potency read?
A: Its Potency is inconclusive: 17.8 µM [inhibitor, full curve, poor fit].

Q: With `Cc1cc(C=C2C(=O)N(C)C(=S)N(C)C2=O)c(C)n1-c1ccncc1` as the compound, how does the Potency read?
A: Its Potency is inconclusive: 22.4 µM [inhibitor, full curve, poor fit].

Q: With `COc1cc2c(cc1OC)C(c1c(O)n(CCc3ccccc3)c(=S)[nH]c1=O)NCC2` (stereo not drawn) as the compound, how does the Potency read?
A: The Potency was inconclusive: 79.4 µM [inhibitor, single point].

Q: `COc1ccc(CN2C(=O)NC(=O)/C(=C/c3ccoc3)C2=O)cc1` was tested. Which Potency did it give?
A: Its Potency is “inactive”.

Q: With `CCc1c(C(=O)OC)ncc2[nH]c3cc(OC)c(OC)cc3c12` as the compound, how does the Potency read?
A: The Potency was inconclusive: 44.7 µM [inhibitor, partial curve, poor fit].

Q: With `CCCCn1c(O)c(C(CC)=NC(C)c2ccccc2)c(=O)[nH]c1=O` (stereo not drawn) as the compound, how does the Potency read?
A: Its Potency is “inactive”.

Q: How did the Potency turn out when `O=C(CN1C(=O)S/C(=C\C=C\c2ccccc2)C1=O)Nc1ccccc1C(=O)O` was run?
A: The Potency was inconclusive: 79.4 µM [inhibitor, single point].

Q: Which Potency does the source give for `CCCCCCCCn1sccc1=O` here?
A: The Potency was inconclusive: 31.6 µM [inhibitor, full curve].

Q: Which Potency does the source give for `Cn1c(O)c(C(c2ccncc2)c2c(O)n(C)c(=S)n(C)c2=O)c(=O)n(C)c1=S` here?
A: The Potency was active: 7.94 µM.

Q: For `Nc1ccc(CCN2CCN(c3cccc(C(F)(F)F)c3)CC2)cc1`, which Potency is on record?
A: The Potency was “inactive”.

Q: How did the Potency turn out when `CC(=O)NCCc1c[nH]c2ccccc12` was run?
A: The Potency was inconclusive: 0.189 µM [inhibitor, full curve, poor fit].

Q: Which Potency does the source give for `O=C1NC(=O)N(Cc2ccccc2Cl)C(=O)/C1=C/c1cccs1` here?
A: Its Potency is inconclusive: 3.55 µM [inhibitor, full curve].

Q: `COC(COC(N)=O)C1=C(N2CC2)C(=O)C(C)=C(N2CC2)C1=O` (stereo not drawn) was tested. Which Potency did it give?
A: Its Potency is inconclusive: 50.1 µM [inhibitor, partial curve, poor fit].

Q: How did the Potency turn out when `CC(C)c1ccc(N2C(=O)NC(=O)/C(=C/C=C/c3ccco3)C2=O)cc1` was run?
A: Its Potency is inconclusive: 31.6 µM [inhibitor, partial curve].

Q: How did the Potency turn out when `COc1ccccc1-n1c(O)c(/C=N/NC(=S)Nc2ccccc2)c(=O)[nH]c1=S` was run?
A: Its Potency is active: 10 µM.

Q: `CCC(C)N1C(=O)/C(=C\c2cc3c4c(c2)CCCN4CCC3)C(=O)NC1=S` (stereo not drawn) was tested. Which Potency did it give?
A: The Potency was active: 31.6 µM.

Q: How did the Potency turn out when `O=C1NC(=O)N(Cc2ccc(F)cc2)C(=O)/C1=C\C=C\c1ccco1` was run?
A: Its Potency is inconclusive: 25.1 µM [inhibitor, partial curve].

Q: `CCSc1cc(C2C(C#N)=C(N)Oc3n[nH]c(C)c32)c(C)o1` (stereo not drawn) was tested. Which Potency did it give?
A: Its Potency is inconclusive: 70.8 µM [inhibitor, single point].

Q: Which Potency does the source give for `N#CC(C#N)=NNc1ccc([N+](=O)[O-])cc1` here?
A: The Potency was active: 22.4 µM.

Q: `Cc1ccc(-n2nc(C)c3c2NC(=O)CSC3c2ccc3c(c2)OCO3)cc1` (stereo not drawn) was tested. Which Potency did it give?
A: The Potency was “inactive”.

Q: How did the Potency turn out when `N/C(=N\N=C/c1ccc(-c2ccc(O)c(C(=O)O)c2)o1)N[N+](=O)[O-]` was run?
A: The Potency was inconclusive: 39.8 µM [inhibitor, partial curve, poor fit].

Q: Which Potency does the source give for `O=C1NC(=O)N(c2ccc(Br)cc2)C(=O)/C1=C/c1ccsc1` here?
A: The Potency was inconclusive: 39.8 µM [inhibitor, partial curve].

Q: With `CCC(CO)NC(=O)[C@@H]1C=C2c3cccc4[nH]cc(c34)C[C@H]2N(C)C1` (stereo partly drawn) as the compound, how does the Potency read?
A: Its Potency is “inactive”.

Q: For `O=[N+]([O-])c1ccc(CN2CCN(c3ccc(Cl)cc3)CC2)o1`, which Potency is on record?
A: The Potency was inconclusive: 31.6 µM [inhibitor, partial curve].

Q: How did the Potency turn out when `Cc1ccc(S(=O)(=O)Cc2ccc(C(=O)N3CCC4(CC3)OCCO4)o2)cc1` was run?
A: The Potency was inconclusive: 14.1 µM [inhibitor, full curve].

Q: Which Potency does the source give for `C=CCN1C(=O)/C(=C/c2cccs2)C(=O)NC1=S` here?
A: Its Potency is active: 10 µM.

Q: For `CCOC(=O)c1sc(/N=C/c2c(O)n(-c3ccccc3)c(=O)[nH]c2=O)c(C#N)c1C`, which Potency is on record?
A: The Potency was inconclusive: 0.562 µM [inhibitor, full curve, poor fit].

Q: How did the Potency turn out when `Cc1ccc(C(=O)CN2CCOCC2)cc1` was run?
A: The Potency was “inactive”.
